Experimental data taken from PMC9911399, “Two distinct binding modes provide the RNA-binding protein RbFox with extraordinary sequence specificity”.
Where a chain is given by its changes, count along the chain named. The list shows a part of the results.

T1: RBFOX1 RRM (Homo sapiens, UniProt Q9NWB1 109-208)
T1 sequence: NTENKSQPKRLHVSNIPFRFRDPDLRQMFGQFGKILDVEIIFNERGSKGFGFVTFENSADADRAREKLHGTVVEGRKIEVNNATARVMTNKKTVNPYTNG

B1: CGAAGCG (DNA:RNA)
RNA: GGGAGACCGGAAUUCAGAUUGUCCCGAAGCGUUAAAUCCCGUCGUAGCCACCA
DNA 1: CAATCTGAATTCCGGTCTCCC
DNA 2: TGGTGGCTACGACGGGATT
B2: ACUGUUC (DNA:RNA)
RNA: GGGAGACCGGAAUUCAGAUUGUCCACUGUUCUUAAAUCCCGUCGUAGCCACCA
DNA 1: CAATCTGAATTCCGGTCTCCC
DNA 2: TGGTGGCTACGACGGGATT
B3: GUUAGAC (DNA:RNA)
RNA: B2 RNA with A25G, C26U, G28A, U29G, U30A
DNA 1: CAATCTGAATTCCGGTCTCCC
DNA 2: TGGTGGCTACGACGGGATT
B4: ACCAAUA (DNA:RNA)
RNA: B2 RNA with U27C, G28A, U29A, C31A
DNA 1: CAATCTGAATTCCGGTCTCCC
DNA 2: TGGTGGCTACGACGGGATT
B5: GCUUAUU (DNA:RNA)
RNA: B2 RNA with A25G, G28U, U29A, C31U
DNA 1: CAATCTGAATTCCGGTCTCCC
DNA 2: TGGTGGCTACGACGGGATT
B6: CUACUAA (DNA:RNA)
RNA: B1 RNA with G26U, A28C, G29U, C30A, G31A
DNA 1: CAATCTGAATTCCGGTCTCCC
DNA 2: TGGTGGCTACGACGGGATT
B7: CGGAUUU (DNA:RNA)
RNA: B1 RNA with A27G, G29U, C30U, G31U
DNA 1: CAATCTGAATTCCGGTCTCCC
DNA 2: TGGTGGCTACGACGGGATT
B8: AUAUAGG (DNA:RNA)
RNA: B1 RNA with C25A, G26U, A28U, G29A, C30G
DNA 1: CAATCTGAATTCCGGTCTCCC
DNA 2: TGGTGGCTACGACGGGATT
B9: UUGGUUG (DNA:RNA)
RNA: B2 RNA with A25U, C26U, U27G, C31G
DNA 1: CAATCTGAATTCCGGTCTCCC
DNA 2: TGGTGGCTACGACGGGATT
B10: CACCCGU (DNA:RNA)
RNA: B1 RNA with G26A, A27C, A28C, G29C, C30G, G31U
DNA 1: CAATCTGAATTCCGGTCTCCC
DNA 2: TGGTGGCTACGACGGGATT
B11: AUCGCAG (DNA:RNA)
RNA: B2 RNA with C26U, U27C, U29C, U30A, C31G
DNA 1: CAATCTGAATTCCGGTCTCCC
DNA 2: TGGTGGCTACGACGGGATT
B12: AGAAUUU (DNA:RNA)
RNA: B2 RNA with C26G, U27A, G28A, C31U
DNA 1: CAATCTGAATTCCGGTCTCCC
DNA 2: TGGTGGCTACGACGGGATT
B13: ACUGCAA (DNA:RNA)
RNA: B2 RNA with U29C, U30A, C31A
DNA 1: CAATCTGAATTCCGGTCTCCC
DNA 2: TGGTGGCTACGACGGGATT
B14: CCGACGG (DNA:RNA)
RNA: B1 RNA with G26C, A27G, G29C, C30G
DNA 1: CAATCTGAATTCCGGTCTCCC
DNA 2: TGGTGGCTACGACGGGATT
B15: CCAGUGU (DNA:RNA)
RNA: B2 RNA with A25C, U27A, U30G, C31U
DNA 1: CAATCTGAATTCCGGTCTCCC
DNA 2: TGGTGGCTACGACGGGATT
B16: GGGUUUC (DNA:RNA)
RNA: B2 RNA with A25G, C26G, U27G, G28U
DNA 1: CAATCTGAATTCCGGTCTCCC
DNA 2: TGGTGGCTACGACGGGATT
B17: CGCGCUA (DNA:RNA)
RNA: B2 RNA with A25C, C26G, U27C, U29C, C31A
DNA 1: CAATCTGAATTCCGGTCTCCC
DNA 2: TGGTGGCTACGACGGGATT
B18: UGCCUUA (DNA:RNA)
RNA: B2 RNA with A25U, C26G, U27C, G28C, C31A
DNA 1: CAATCTGAATTCCGGTCTCCC
DNA 2: TGGTGGCTACGACGGGATT
B19: UUAAAUA (DNA:RNA)
RNA: B1 RNA with C25U, G26U, G29A, C30U, G31A
DNA 1: CAATCTGAATTCCGGTCTCCC
DNA 2: TGGTGGCTACGACGGGATT
B20: GAACAGA (DNA:RNA)
RNA: B1 RNA with C25G, G26A, A28C, G29A, C30G, G31A
DNA 1: CAATCTGAATTCCGGTCTCCC
DNA 2: TGGTGGCTACGACGGGATT

What follows are binders tested against T1, RBFOX1 RRM (assay: EMSA; HiTS-Eq, 1 nM pool, 10 min; buffer printed only for the single-RNA assays: 10 mM Tris pH 7.5, 150 mM NaCl, 3.4 mM EDTA, 0.001% NP-40, 30 C). Conditions: tags: His6 N-terminal (pET28a); label: 5' 32P.
Outline: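 Purified wild-type or mutant RbFox RRM at increasing concentrations was equilibrated with 1 nM of 5′-radiolabelled RNA carrying 7 randomized nucleotides for 10 min in 50 µL. Unbound RNA was separated by 8% native PAGE and sequenced. Relative association constants came from read-count changes of each RNA species compared with the control reaction, normalised to the cognate motif.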

Row | Binder | binding signal
1 | B1 | 0.00799 KA relative to UGCAUGU
2 | B2 | 0.0101 KA relative to UGCAUGU
3 | B3 | 0.0164 KA relative to UGCAUGU
4 | B4 | 0.00156 KA relative to UGCAUGU
5 | B5 | 0.00758 KA relative to UGCAUGU
6 | B6 | 0.00365 KA relative to UGCAUGU
7 | B7 | 0.0218 KA relative to UGCAUGU
8 | B8 | 0.00541 KA relative to UGCAUGU
9 | B9 | 0.0398 KA relative to UGCAUGU
10 | B10 | 0.00231 KA relative to UGCAUGU
11 | B11 | 0.00858 KA relative to UGCAUGU
12 | B12 | 0.00504 KA relative to UGCAUGU
13 | B13 | 0.00839 KA relative to UGCAUGU
14 | B14 | 0.00925 KA relative to UGCAUGU
15 | B15 | 0.0133 KA relative to UGCAUGU
16 | B16 | 0.0237 KA relative to UGCAUGU
17 | B17 | 0.00984 KA relative to UGCAUGU
18 | B18 | 0.00671 KA relative to UGCAUGU
19 | B19 | 0.000772 KA relative to UGCAUGU
20 | B20 | 0.00875 KA relative to UGCAUGU
